Assay results reported in the supplement of paper PMC10320760.
This is a noisy data set.

B1: Ydj1; a variant is named by its letters at X, in order (parent)
chain: MVKETKFYDILGVPVTATDVEIKKAYRKCALKYHPDKNPSEEAAEKFKEASAAYEILSDPEKRDIYDQFGEDGLSGAGGAGGFPGGGFGFGDDIFSQFFGAGGAQRPRGPQRGKDIKHEISASLEELYKGRTAKLALNKQILCKECEGRGGKKGAVKKCTSCNGQGIKFVTRQMGPMIQRFQTECDVCHGTGDIIDPKDRCKSCNGKKVENERKILEVHVEPGMKDGQRIVFKGEADQAPDVIPGDVVFIVSERPHKSFKRDGDDLVYEAEIDLLTAIAGGEFALEHVSGDWLKVGIVPGEVIAPGMRKVIEGKGMPIPKYGGYGNLIIKFTIKFPENHFTSEENLKKLEEILPPRIVPAIPKKATVDECVLADFDPAKYNRTRASRGGANYDSDEEEQGGEGVQCXXX

Variants of: B1
Assay: enrichment factor, frequency at 37 °C / frequency at 25 °C (thermotolerance selection) (ratio); higher = more growth at 37 °C, higher likelihood of farnesylation
Details: with Saccharomyces cerevisiae ydj1Δ (yWS304); selective temperature 37 °C; reference temperature 25 °C
Procedure: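 Pooled library of all 8,000 Ydj1-CXXX C-terminal motif variants (native CASQ replaced by C + three variable residues, one codon per amino acid) expressed from a CEN plasmid in S. cerevisiae ydj1Δ (yWS304). The library was grown in SC-Ura liquid to A600 ~2 (~8 generations) at permissive 25 °C or selective 37 °C. Reads from 8 and 7 replicates were pooled and variants counted by NGS. Enrichment factor = frequency at 37 °C / frequency at 25 °C, with a +1 correction; it reports Ydj1-dependent thermotolerance, used as a read-out of farnesylation by yeast FTase.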

Variant | enrichment factor
EGC | 1.31
EGK | 0.161
EGD | 0.161
EGE | 0.217
EGT | 0.549
EGI | 0.507
EGF | 1.68
EGR | 0.122
EGS | 0.808
EGP | 0.141
EGM | 1.52
EGG | 0.0554
EGL | 0.303
EGQ | 1.18
EGH | 1.14
EGN | 0.0451
EGV | 1.03
MGE | 0.0812
MGS | 1.24
MGH | 1.52
MGQ | 1.59
MGI | 0.972
MGM | 1.33
MGF | 0.509

Variant | enrichment factor
MGP | 0.213
MGR | 0.187
MGN | 0.821
MGG | 0.255
MGK | 0.105
MGC | 0.123
MGD | 0.106
MGL | 0.805
MGT | 0.971
AGG | 0.872
AGI | 1.43
AGS | 2.42
AGR | 0.131
AGE | 0.216
AGP | 0.124
AGM | 1.39
AGV | 1.72
AGF | 1.53
AGK | 0.163
AGL | 1.76
AGQ | 1.45
AGN | 1.37
AGC | 0.914
AGD | 0.189

Variant | enrichment factor
AGH | 1.73
AGT | 2.17
VGT | 1.47
VGK | 0.174
VGI | 1.8
VGF | 1.75
VGL | 1.63
VGR | 0.138
VGC | 0.866
VGS | 1.06
VGD | 0.209
VGM | 1.18
VGE | 0.138
VGN | 1.29
VGG | 1.37
VGH | 1.69
VGA | 1.19
VGQ | 1.6
VGP | 0.138
PGC | 1.16
PGE | 0.168
PGA | 0.99
PGH | 1.69
PGI | 0.789

Variant | enrichment factor
PGF | 1.32
PGS | 1.39
PGT | 1.04
PGP | 0.2
PGM | 1.27
PGK | 0.134
PGQ | 1.37
PGG | 0.113
PGR | 0.153
PGD | 0.0899
PGL | 0.402
PGN | 0.69
CGG | 0.563
CGD | 0.201
CGC | 0.0739
CGM | 0.672
CGL | 0.267
CGP | 0.201
CGI | 0.322
CGT | 0.384
CGA | 0.732
CGF | 0.463
CGE | 0.131
CGR | 0.0954

Variant | enrichment factor
CGH | 0.135
CGQ | 0.436
CGS | 0.26
CGN | 1.15
CGK | 0.142
DGK | 0.164
DGA | 0.164
DGQ | 0.788
DGP | 0.137
DGM | 0.365
DGI | 0.192
DGN | 0.163
DGT | 0.141
DGS | 0.158
DGH | 0.106
DGR | 0.155
DGC | 0.233
DGL | 0.116
DGD | 0.0919
DGF | 1.5
DGG | 0.129
DGE | 0.149
KGK | 0.133
KGM | 1.36

Variant | enrichment factor
KGL | 0.221
KGN | 0.382
KGG | 0.263
KGT | 0.877
KGI | 0.143
KGE | 0.126
KGC | 1.22
KGR | 0.148
KGP | 0.0628
KGQ | 1.51
KGS | 1.51
KGF | 2.09
KGH | 1.86
KGD | 0.437
RGQ | 1.32
RGG | 0.137
RGT | 1.06
RGC | 0.61
RGF | 0.718
RGI | 0.962
RGP | 0.262
RGL | 1.14
RGS | 1.21
RGE | 0.21

Variant | enrichment factor
RGD | 0.311
RGN | 0.813
RGA | 1.78
RGH | 1.63
RGK | 0.232
RGM | 0.86
RGR | 0.132
SGN | 0.725
SGH | 1.85
SGQ | 1.48
SGR | 0.183
SGS | 1.45
SGP | 0.139
SGE | 0.0499
SGT | 1.23
SGF | 1.57
SGA | 1.33
SGI | 1.33
SGG | 0.441
SGK | 0.204
SGC | 1.15
SGL | 1.08
SGM | 1.5
